Source: the supplement of paper PMC8728848
This is one part of the list.

Columns and labels:
Assay in all cases: glycan array binding signal (z-score within array); higher = stronger binding
Conditions in all cases: glycan notation: IUPAC condensed, linker removed
[1] = target: Man(a1-2)Man(a1-3)[Man(a1-2)Man(a1-6)]Man(a1-6)[Man(a1-2)Man(a1-2)Man(a1-3)]Man
How it was run: (§1)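 Glycan array data were curated from 3228 arrays in the Consortium for Functional Glycomics database and kept only where the protein sequence was available. Glycan names were converted to IUPAC-condensed notation, and columns mapping to the same glycan were averaged. The binding signal is a within-array Z-score, averaged across arrays of the same protein sequence at different concentrations or buffers and across linkers. Negative Z-scores can be read as non-binding.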

[2] = target: Man(a1-2)Man(a1-3)[Man(a1-2)Man(a1-6)]Man(a1-6)[Man(a1-2)Man(a1-2)Man(a1-3)]Man(b1-4)GlcNAc(b1-4)GlcNAc
How it was run: as §1

[3] = target: Man(a1-2)Man(a1-3)[Man(a1-6)]Man(a1-6)[Man(a1-2)Man(a1-3)]Man(b1-4)GlcNAc(b1-4)GlcNAc
How it was run: as §1

[4] = target: Man(a1-2)Man(a1-6)[Man(a1-3)]Man(a1-6)[Man(a1-2)Man(a1-2)Man(a1-3)]Man
How it was run: as §1

[5] = target: Man(a1-2)Man(a1-6)[Man(a1-3)]Man(a1-6)[Man(a1-2)Man(a1-2)Man(a1-3)]Man(b1-4)GlcNAc(b1-4)GlcNAc
How it was run: as §1

Man(a1-3)[Man(a1-6)]Man = target: Man(a1-3)[Man(a1-6)]Man
How it was run: as §1

[6] = target: Man(a1-3)[Man(a1-6)]Man(a1-6)[Man(a1-2)Man(a1-3)]Man(b1-4)GlcNAc(b1-4)GlcNAc
How it was run: as §1

[7] = target: Man(a1-3)[Man(a1-6)]Man(a1-6)[Man(a1-3)]Man
How it was run: as §1

[8] = target: Man(a1-3)[Man(a1-6)]Man(a1-6)[Man(a1-3)]Man(b1-4)GlcNAc(b1-4)GlcNAc
How it was run: as §1

[9] = target: Man(a1-3)[Man(a1-6)]Man(b1-4)GlcNAc(b1-4)GlcNAc
How it was run: as §1

[10] = target: Man(a1-3)[Man(a1-6)]Man(b1-4)GlcNAc(b1-4)[Fuc(a1-6)]GlcNAc
How it was run: as §1

Man(a1-6)Man = target: Man(a1-6)Man
How it was run: as §1

Man(b1-4)GlcNAc = target: Man(b1-4)GlcNAc
How it was run: as §1

MurNAc(b1-4)GlcNAc = target: MurNAc(b1-4)GlcNAc
How it was run: as §1

Neu5Ac(a2-3)Gal = target: Neu5Ac(a2-3)Gal
How it was run: as §1

[11] = target: Neu5Ac(a2-3)Gal(b1-3)GalNAc
How it was run: as §1

[12] = target: Neu5Ac(a2-3)Gal(b1-3)GalNAc(b1-3)Gal(a1-4)Gal(b1-4)Glc
How it was run: as §1

[13] = target: Neu5Ac(a2-3)Gal(b1-3)GalNAc(b1-4)Gal(b1-4)Glc
How it was run: as §1

[14] = target: Neu5Ac(a2-3)Gal(b1-3)GalNAc(b1-4)[Neu5Ac(a2-3)]Gal(b1-4)Glc
How it was run: as §1

[15] = target: Neu5Ac(a2-3)Gal(b1-3)GalNAc(b1-4)[Neu5Ac(a2-8)Neu5Ac(a2-3)]Gal(b1-4)Glc
How it was run: as §1

[16] = target: Neu5Ac(a2-3)Gal(b1-3)GalNAc6S
How it was run: as §1

[17] = target: Neu5Ac(a2-3)Gal(b1-3)GlcNAc
How it was run: as §1

[18] = target: Neu5Ac(a2-3)Gal(b1-3)GlcNAc(b1-2)Man
How it was run: as §1

[19] = target: Neu5Ac(a2-3)Gal(b1-3)GlcNAc(b1-2)Man(a1-3)[GlcNAc(b1-4)][Neu5Ac(a2-3)Gal(b1-3)GlcNAc(b1-2)Man(a1-6)]Man(b1-4)GlcNAc(b1-4)GlcNAc
How it was run: as §1

[20] = target: Neu5Ac(a2-3)Gal(b1-3)GlcNAc(b1-2)Man(a1-3)[Neu5Ac(a2-3)Gal(b1-3)GlcNAc(b1-2)Man(a1-6)]Man(b1-4)GlcNAc(b1-4)GlcNAc
How it was run: as §1

[21] = target: Neu5Ac(a2-3)Gal(b1-3)GlcNAc(b1-2)[Neu5Ac(a2-3)Gal(b1-3)GlcNAc(b1-4)]Man(a1-6)[Neu5Ac(a2-3)Gal(b1-3)GlcNAc(b1-2)Man(a1-3)]Man(b1-4)GlcNAc(b1-4)GlcNAc
How it was run: as §1

[22] = target: Neu5Ac(a2-3)Gal(b1-3)GlcNAc(b1-3)Gal(b1-3)GlcNAc
How it was run: as §1

[23] = target: Neu5Ac(a2-3)Gal(b1-3)GlcNAc(b1-3)Gal(b1-4)GlcNAc
How it was run: as §1

[24] = target: Neu5Ac(a2-3)Gal(b1-3)GlcNAc(b1-3)GalNAc
How it was run: as §1

[25] = target: Neu5Ac(a2-3)Gal(b1-3)GlcNAc(b1-6)GalNAc
How it was run: as §1

[26] = target: Neu5Ac(a2-3)Gal(b1-3)GlcNAc6S
How it was run: as §1

[27] = target: Neu5Ac(a2-3)Gal(b1-3)[Fuc(a1-4)]GlcNAc
How it was run: as §1

[28] = target: Neu5Ac(a2-3)Gal(b1-3)[Fuc(a1-4)]GlcNAc(b1-3)Gal(b1-3)[Fuc(a1-4)]GlcNAc
How it was run: as §1

[29] = target: Neu5Ac(a2-3)Gal(b1-3)[Fuc(a1-4)]GlcNAc(b1-3)Gal(b1-4)[Fuc(a1-3)]GlcNAc
How it was run: as §1

[30] = target: Neu5Ac(a2-3)Gal(b1-3)[GlcNAc(b1-6)]GalNAc
How it was run: as §1

[31] = target: Neu5Ac(a2-3)Gal(b1-3)[Neu5Ac(a2-6)]GalNAc
How it was run: as §1

[32] = target: Neu5Ac(a2-3)Gal(b1-3)[Neu5Ac(a2-6)]GlcNAc(b1-3)[Fuc(a1-3)[Gal(b1-4)]GlcNAc(b1-6)]Gal(b1-4)Glc
How it was run: as §1

B1: B1567 (Bifidobacterium sp) (protein)
chain: MKFTTAKKAVALTGAVAMLVSVAACGSDSGKSSQPAQDSDVKEITVWAWEPSLTQVAKDFEKETGIKVDLKNVGTNTKEYTQLDNAIEAGSGAPDVAQVEYYAVPQYAIKGNLLDITDKTSGYKDFYTPGPWASVQFAGKVYGLPMDSGPMAFFYNKEVFDKAGVDAEQIKTWDQYYDAAKKIHALGDNYYITSDTGDAGFFDSMTWLAGAKPFQTSSDGSEVTVNLTEDKGVKTFTDFWQKLLDEGLLDTKTAGWSEDWFKGMVDGTIASLFTGAWMPANLANSAADGAGKWRVTQMPTADGSTTNSENGGSSLAVLASTKKADAAYQFIEYANHGAGVATRVAGGAFPADKASLEKDSFKNATTVKNADGQDVDYFGGQKYNEVLAQAAENVSSGYQFLPFEVKARTIFGDYFGKSYTGDQKLSDGVAAWQKALQDYGKDQGFTVK
[1]
  glycan array binding signal (z-score): -0.086
[2]
  glycan array binding signal (z-score): -0.139
[3]
  glycan array binding signal (z-score): 0.007
[4]
  glycan array binding signal (z-score): -0.045
[5]
  glycan array binding signal (z-score): -0.127
Man(a1-3)[Man(a1-6)]Man
  glycan array binding signal (z-score): -0.05
[6]
  glycan array binding signal (z-score): -0.126
[7]
  glycan array binding signal (z-score): -0.188
[8]
  glycan array binding signal (z-score): -0.114
[9]
  glycan array binding signal (z-score): -0.086
[10]
  glycan array binding signal (z-score): -0.075
Man(a1-6)Man
  glycan array binding signal (z-score): -0.162
Man(b1-4)GlcNAc
  glycan array binding signal (z-score): -0.154
MurNAc(b1-4)GlcNAc
  glycan array binding signal (z-score): -0.163
Neu5Ac(a2-3)Gal
  glycan array binding signal (z-score): -0.108
[11]
  glycan array binding signal (z-score): -0.114
[12]
  glycan array binding signal (z-score): -0.06
[13]
  glycan array binding signal (z-score): -0.112
[14]
  glycan array binding signal (z-score): -0.092
[15]
  glycan array binding signal (z-score): -0.116
[16]
  glycan array binding signal (z-score): -0.104
[17]
  glycan array binding signal (z-score): -0.061
[18]
  glycan array binding signal (z-score): -0.133
[19]
  glycan array binding signal (z-score): -0.019
[20]
  glycan array binding signal (z-score): -0.086
[21]
  glycan array binding signal (z-score): -0.072
[22]
  glycan array binding signal (z-score): -0.12
[23]
  glycan array binding signal (z-score): -0.029
[24]
  glycan array binding signal (z-score): -0.093
[25]
  glycan array binding signal (z-score): -0.05
[26]
  glycan array binding signal (z-score): -0.075
[27]
  glycan array binding signal (z-score): -0.109
[28]
  glycan array binding signal (z-score): -0.096
[29]
  glycan array binding signal (z-score): -0.046
[30]
  glycan array binding signal (z-score): -0.189
[31]
  glycan array binding signal (z-score): -0.122
[32]
  glycan array binding signal (z-score): -0.07
